# Measurements from PubChem BioAssay AID1347073 (National Center for Advancing Translational Sciences (NCATS), 2019).
# The campaign covered roughly 45,000 compounds. About 200 (0.44%) were called active. About 7% were inconclusive and are not listed. The call rests on the fitted dose curve; in most records, active means well fitted activation curve with a large enough effect; inconclusive means small, poorly fitted or top-dose-only effect; inactive means no such curve, though single readings can be large or run the other way. Some of the results follow.
# Assay: qHTS of TDP-43 Inhibitors: NCGC Sytravon Library Screen; further: 0% is about no effect; nearly all actives have a fitted effect of over 55% in size
# Conditions: yeast TDP-43 toxicity rescue, BacTiter-Glo growth, 24 h; series mostly up to 46.1 µM; growth rescue (activation): at the top concentration
# How it was run: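 TDP-43-expressing yeast, pregrown in raffinose, seeded at OD600 0.02 in galactose medium with compound for 24 hr at 30 deg C. Growth read by BacTiter-Glo luminescence, so rescue of toxicity appears as activation.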
row,Structure (SMILES),growth rescue (activation)
1,COc1ccc(C(=O)NC(C)CCn2cccn2)cc1OC1CCN(C(C)C)CC1 (centres undefined),inactive: 17.8%
2,OC(COC(c1ccccc1)c1ccccc1)CN1CCN(c2ccccn2)CC1 (centres undefined),inactive: -2.95%
3,NC(=O)C1CCCN(C(=O)CCCNC(=O)c2ccc(Cl)cc2)C1 (centres undefined),inactive: -3.02%
4,CCc1ccc(N/C(N)=N/c2nc(CSc3ccccn3)cc(=O)[nH]2)cc1,inactive: 10.8%
5,COc1cc(CCC(=O)OCC(=O)Nc2ccc(Br)cc2F)cc(OC)c1OC,inactive: -30.3%
6,CCN(C1CCS(=O)(=O)C1)S(=O)(=O)c1cccc([N+](=O)[O-])c1 (centres undefined),inactive: -9.86%
7,COc1ccc(S(=O)(=O)N2CCOCC2)cc1NC(=O)Cc1ccc(Cl)c(Cl)c1,inactive: 16.4%
8,O=C(NCCc1ccccn1)c1cc(-c2ccc(Cl)cc2)nc2ccccc12,inactive: 16.2%
9,O=C(COC(=O)c1ccco1)Nc1cccc(Br)c1,inactive: 9.63%
10,CCOc1ccccc1NC(=O)COC(=O)c1ccc(S(=O)(=O)N2CCCC2)cc1,inactive: 21.2%
11,O=C(N/N=C/c1ccc(O)cc1)c1cccc(C(F)(F)F)c1,inactive: 18.5%
12,COc1ccc(S(=O)(=O)N(C)C)cc1NC(=O)Cc1c[nH]c2ccccc12,inactive: -21%
13,CC(Cc1ccccc1)NC(=O)c1cc2ccccc2o1 (centres undefined),inactive: 6.07%
14,CCCCOc1ccc(C(=O)N2CCNC(=O)C2)cc1,inactive: 10.3%
15,NCCCCCC(=O)Nc1ccncc1,inactive: 0.35%
16,S=C(NCc1ccco1)N1CCN(c2ccccc2Cl)CC1,inactive: 30.5%
17,CC(C)(C)NCc1cc(Br)ccc1OCc1cccs1,inactive: 6.23%
18,CN(NS(=O)(=O)c1ccc(Cl)cc1)c1nc(C(F)(F)F)nc2ccccc12,inactive: -16.6%
19,COc1cccc(NC(=O)CC(=O)c2ccccc2)c1,inactive: 20.4%
20,O=C1N=c2ccccc2=C1c1sc(NS(=O)(=O)c2ccccc2)nc1O,inactive: -8.34%
21,CC(C)(C)c1ccc(S(=O)(=O)N(CCCN2CCOCC2)Cc2cccs2)cc1,inactive: -15.5%
22,O=C(O)C1CC(O)CN1S(=O)(=O)c1cccs1 (centres undefined),inactive: 17%
23,Cc1[nH]ccc(=O)c1Oc1ncc(C(F)(F)F)cc1Cl,inactive: 9.32%

row,Structure (SMILES),growth rescue (activation)
1,O=C(CSc1n[nH]c(=O)[nH]c1=O)N/N=C/c1ccccc1O,inactive: 27.1%
2,CCNC(=S)N1CCN(CC(=O)Nc2ccc(Br)cc2)CC1,inactive: 9.27%
3,COCCCC1CCN(Cc2nc(Cc3ccccc3Cl)no2)CC1,inactive: 2.14%
4,CCN(CC)S(=O)(=O)c1ccc(C(=O)OCC(=O)Nc2ccc(-c3nc4ccc(C)cc4s3)cc2)cc1,inactive: -4.39%
5,CCc1ccc(N(C(=O)CCC(=O)Nc2cc(C)on2)C(C(=O)NC(C)(C)C)c2ccc(OC)cc2)cc1 (centres undefined),inactive: -9.01%
6,COc1ccc(C(=O)CSc2nc3ccc([N+](=O)[O-])cc3[nH]2)cc1,inactive: 8.98%
7,COc1cc([N+](=O)[O-])cc(/C=N/NC(=O)c2ccc(C)nc2)c1O,inactive: 23.7%
8,Cc1c(C(=O)N(Cc2ccc(N(C)C)cc2)C2CCS(=O)(=O)C2)oc2ccccc12 (centres undefined),inactive: 8.05%
9,Cn1c(=N)n(CC(O)c2ccccc2)c2ccccc21 (centres undefined),inactive: 4.61%
10,COc1ccccc1-c1cc(C(=O)N2CCCC2)no1,inactive: 7.37%
11,NS(=O)(=O)c1ccc(CNC(=O)Cc2c(F)cccc2Cl)cc1,inactive: 21%
12,CCOC(=O)c1c(C)[nH]c(C(=O)OCc2ccccc2F)c1C,inactive: 8.14%
13,O=C(c1ccc2c(c1)N(Cc1ccccc1)C(=O)c1ccccc1S2(=O)=O)N1CCN(c2ccccc2)CC1,inactive: 5.94%
14,COc1ccc(CCNC(=O)c2cc(-c3cc(C)ccc3O)n[nH]2)cc1OC,inactive: 10.9%
15,COC(=O)Cn1nc(C)c2c(C)n(-c3ccccc3)nc2c1=O,inactive: 5.23%
16,CC(C)COC(=O)N1CCCCC1c1cc(C(=O)NCc2cccnc2)no1 (centres undefined),inactive: 9.44%
17,Cc1cc(/C=N/n2cnnc2)c(O)c([N+](=O)[O-])c1,inactive: 32.5%
18,CC(C)c1nc(N2CCN(C(=O)c3ccco3)CC2)c(C#N)c2c1COC(C)(C)C2,inactive: 25.1%
19,COCCSc1nnc(NS(=O)(=O)c2ccccc2)s1,inactive: 1.23%
20,NC(=O)c1cccc(-c2ccnc3c2CC(C(=O)NCc2ccc(F)c(F)c2)O3)c1 (centres undefined),inactive: 6.33%
21,O=C(O)c1ccc(Sc2ccccn2)c([N+](=O)[O-])c1,inactive: 3.54%
22,O=c1c2ccccc2cnn1Cc1n[nH]c(=S)n1-c1cc(Cl)cc(Cl)c1,inactive: 9.49%
23,COc1ccc(F)cc1C(=O)C1CCCN(Cc2cn(C)c3ccccc23)C1 (centres undefined),inactive: -23.1%

row,Structure (SMILES),growth rescue (activation)
1,COc1cccc(N2CCN(CC(=O)NC(=O)NC3CCCCC3)CC2)c1,inactive: 14.8%
2,Cc1ccc(CNS(=O)(=O)NCc2ccccc2)cc1,inactive: 3.75%
3,O=C(Cn1cnc2ccccc2c1=O)Nc1nnc(C2CC2)s1,inactive: 13.1%
4,CCn1ncc(NC(=S)Nc2ccc3c(c2)OCO3)c1C(N)=O,inactive: 11.7%
5,CC1CCC/C(=C\Nc2ccc(C(=O)O)cc2)C1=O (centres undefined),inactive: 12.5%
6,COc1cc(OC)c(OC)cc1CNCCNC(=O)c1ccco1,inactive: -7.5%
7,CCOC(=O)CSc1ccc2nnc(CCNS(=O)(=O)c3ccccc3)n2n1,inactive: 4.21%
8,C=CCn1c(SCC(=O)Nc2sc3c(c2C#N)CCC(C)C3)nc2cc(C(=O)O)ccc2c1=O (centres undefined),inactive: -17.7%
9,COc1ccc(-c2cc(C(=O)N/N=C(\C)c3cccnc3)c3ccccc3n2)cc1,inactive: 5.6%
10,CCc1nc2ccc(C(=O)NCc3ccc4c(c3)OCO4)cn2c1N(C)CCC(C)C,inactive: 0.746%
11,O=C(Nc1ccc2[nH]c(=O)[nH]c2c1)c1c(F)c(F)c(F)c(F)c1F,inactive: 5.53%
12,O=C(NCc1ccccc1)c1cc(C2CCCCN2S(=O)(=O)Cc2ccccc2)on1 (centres undefined),inactive: 22.6%
13,O=C(Nc1cc(NC(=O)c2ccccc2F)ccc1Cl)c1ccccc1,inactive: -12.1%
14,CCCC(=O)N1CCCC1(C)C(=O)Nc1ccc(OC(F)F)cc1 (centres undefined),inactive: 7.75%
15,O=C(NCC1CCCO1)c1ccc(C(=O)NCC2CCCO2)cc1 (centres undefined),inactive: -0.51%
16,COc1cc(C)c(NC(=S)Nc2cccc(Cl)c2C)cc1OC,inactive: 16%
17,CC(=O)N1C(C)(C)CC(=NOC(=O)c2ccccc2)CC1(C)C,inactive: 19%
18,O=S(=O)(c1ccccc1)c1ncc(C(F)(F)F)cc1O,inactive: 3.46%
19,N#CN=C(c1ccccc1)c1ccccc1,inactive: -8.43%
20,COc1ccccc1OCCC(=O)OCC(=O)Nc1cc(S(=O)(=O)N(C)C)ccc1Cl,inactive: 9.41%
21,COc1cc(-c2noc(CCC(=O)NC3CCCC3)n2)cc(OC)c1OC,inactive: -13.5%
22,CC1=NN(C(N)=S)C(=O)C1N=Nc1cc(Cl)ccc1Cl (centres undefined),inactive: 33.6%
23,COc1ccc(NC(=O)C2(C)CCCN(C(C)C)C2)cc1OC (centres undefined),inactive: 4.56%
